# In paper PMC4336329 (PLoS ONE, 2015):
# In all, about 310,000 compounds went through this assay and about 14,000 (4.5%) showed an effect of 50% or more. Effects have a minus sign here. Some of the results follow.
# Target: human ether-à-go-go-related gene (hERG) potassium channel (human, UniProt Q12809)
# Test: primary screen, population patch clamp on CHO cells stably expressing hERG
# 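Further: peak tail current of the secondary pulse compared with the same well before compound.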
# human ether-à-go-go-related gene (hERG) potassium channel, sequence (Q12809 whole entry, looked up): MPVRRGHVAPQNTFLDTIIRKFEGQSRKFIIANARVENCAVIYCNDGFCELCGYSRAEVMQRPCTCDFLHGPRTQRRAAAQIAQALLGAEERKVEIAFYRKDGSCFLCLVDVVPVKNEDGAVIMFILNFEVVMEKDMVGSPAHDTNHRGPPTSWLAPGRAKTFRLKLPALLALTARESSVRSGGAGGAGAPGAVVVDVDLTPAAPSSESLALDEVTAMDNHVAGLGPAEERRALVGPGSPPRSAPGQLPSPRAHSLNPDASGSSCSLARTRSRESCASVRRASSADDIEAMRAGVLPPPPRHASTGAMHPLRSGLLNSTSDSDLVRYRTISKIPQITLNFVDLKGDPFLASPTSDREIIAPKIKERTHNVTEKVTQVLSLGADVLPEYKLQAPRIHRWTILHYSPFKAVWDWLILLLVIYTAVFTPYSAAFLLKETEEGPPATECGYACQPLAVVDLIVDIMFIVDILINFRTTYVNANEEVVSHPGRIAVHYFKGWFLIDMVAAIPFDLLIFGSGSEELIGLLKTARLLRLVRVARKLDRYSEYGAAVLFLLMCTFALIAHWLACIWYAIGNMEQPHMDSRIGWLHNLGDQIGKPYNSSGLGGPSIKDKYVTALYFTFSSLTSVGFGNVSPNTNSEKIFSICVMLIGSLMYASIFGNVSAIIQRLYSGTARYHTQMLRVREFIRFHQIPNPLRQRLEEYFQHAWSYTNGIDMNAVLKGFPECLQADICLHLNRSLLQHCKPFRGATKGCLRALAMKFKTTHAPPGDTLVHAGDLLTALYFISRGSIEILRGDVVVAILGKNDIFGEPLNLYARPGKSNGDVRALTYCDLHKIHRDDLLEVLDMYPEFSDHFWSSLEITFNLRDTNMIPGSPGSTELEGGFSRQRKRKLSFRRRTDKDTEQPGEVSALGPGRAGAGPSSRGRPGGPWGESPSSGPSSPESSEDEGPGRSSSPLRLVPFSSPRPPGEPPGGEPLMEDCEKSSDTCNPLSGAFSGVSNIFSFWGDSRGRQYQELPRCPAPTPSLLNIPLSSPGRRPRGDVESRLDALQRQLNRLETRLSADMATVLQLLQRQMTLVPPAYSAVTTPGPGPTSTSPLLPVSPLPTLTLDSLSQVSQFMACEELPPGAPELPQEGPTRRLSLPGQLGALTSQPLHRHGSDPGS
row,Compound,"hERG current change (%, negative = inhibition) at 10uM [%]"
1,O=C(c1cnccn1)N1CCN(c2ccccc2)CC1,-12.2
2,Cc1cccc(NC(=S)N(C)C2CCCCC2)c1,5.51
3,O=C(CCCC(=O)c1ccccc1)NCCc1ccccc1F,-7.82
4,COc1ccc(S(=O)(=O)N2CCOCC2)cc1NC(=O)CC1CCCC1,-6.2
5,COc1ccc(NC(=O)NC(C)c2ccccc2)cc1 (centres unmarked),13.7
6,CCN(CC(=O)Nc1c(F)cccc1F)C(=O)CNC(=O)c1ccc2ccccc2c1,-6.5
7,CCCCC(=O)NCCNC(=O)c1cc(OCC(F)(F)F)ccc1OCC(F)(F)F,6.42
8,O=C(c1ccc2c(=O)n3c(nc2c1)CCCCC3)N1CCN(C(c2ccccc2)c2ccccc2)CC1,-12.8
9,CCCCN(C(=O)CN1C(=O)C2CCCCC2C1=O)c1c(N)n(Cc2ccccc2)c(=O)[nH]c1=O (centres unmarked),8.3
10,Cc1c(Cl)cccc1NC(=O)CNC(=O)c1ccco1,16.6
11,Cc1cc(C)nc(SCc2nnc(SCC(=O)Nc3ccc(C)c(C)c3)n2Cc2ccco2)n1,4.18
12,Cc1cccc(NC(=O)C2C3C=CC4(O3)C2C(=O)N(CCCN2CCCC2)C4C(=O)NC2CCCC(C)C2C)c1 (centres unmarked),3.35
13,CCCN(CCC)C(=O)CSc1ncccc1C(=O)O,11
14,Cc1ccc2nc(SCCCCOc3ccccc3)[nH]c2c1,7.26
15,COc1ccc(C)c2sc(N(CCN(C)C)C(=O)c3ccc4ccccc4c3)nc12.Cl,-20.7
16,CCN(CC)C(=O)c1ccc(N)cc1,-1.08
17,COc1cc(CO)cc(-c2cc(CO)cc(OC)c2OC)c1OC,10.3
18,Cc1cccc(/C=N/NC(=O)c2cc(-c3cccnc3)nc3c2c(C)nn3-c2ccccc2)c1,-11.3
19,COc1ccccc1CNC(=O)c1ccncc1,15

row,Compound,"hERG current change (%, negative = inhibition) at 10uM [%]"
1,CCn1c2ccccc2c2cc(C#N)c(N)nc21,6.07
2,COC(=O)c1sc(N)c(C(=O)OC)c1COC(=O)CCNS(=O)(=O)c1ccc(C)cc1,-20.9
3,CC1(C)C2([N+](=O)[O-])CN3CC1([N+](=O)[O-])CN(C2)C3c1cccnc1 (centres unmarked),26
4,CCN1CCN(S(=O)(=O)c2ccc(F)c(C(=O)Nc3c(F)cc(F)cc3Br)c2)CC1,-17.1
5,CCOc1ccc(Nc2oc(-c3ccco3)nc2C#N)cc1,-1.69
6,O=C(Nc1ccc(-c2nnc(-c3ccco3)o2)cc1)C(c1ccccc1)c1ccccc1,4.27
7,Cc1cccc(C(=O)OCC(=O)N2CC(C)OC(C)C2)c1C (centres unmarked),11.9
8,CCOc1cc(/C=C2\SC(=N)N(c3nonc3N)C2=O)ccc1OCC(N)=O,7.01
9,CCCN1CCN(C(=O)CCCNC(=O)Cn2cnc3sc(C)c(C)c3c2=O)CC1,14
10,Cc1cccc(NC(=O)NNC(=O)COc2ccc([N+](=O)[O-])cc2)c1C,0.136
11,O=C(O)CC1NC(=O)N(c2ccc(Cl)cc2)C1=O (centres unmarked),19.5
12,CCN(CC)S(=O)(=O)c1cc(C(=O)O)c(Cl)cc1Cl,25.4
13,COc1ccc(OC)c(C2=NOC(C(=O)NCc3cccnc3)C2)c1 (centres unmarked),-62
14,CCOC(=O)C(/C=C(\C#N)C(=O)OCC)=C(/N)N1CCN(c2ccc(OC)cc2)CC1,2.49
15,COc1ccc(N(C(=O)c2ccco2)C(C(=O)NC2CCCC2)c2cccs2)c(OC)c1 (centres unmarked),-12.8
16,CC(=O)c1ccccc1NC(=O)COC(=O)c1ccccc1NC(=O)c1ccccc1,-16.1
17,CC(=O)Nc1ccc(S(=O)(=O)N2CCSC2c2ccc(C)cc2)cc1 (centres unmarked),2.9
18,CCCS(=O)(=O)Nc1ccc2cn[nH]c2c1,11.7
19,c1ccc(CNc2ncnc3c2cnn3Cc2ccccc2)cc1,-22

row,Compound,"hERG current change (%, negative = inhibition) at 10uM [%]"
1,CC12CC3CC(C)(C1)CC(C(=O)NCc1cccnc1)(C3)C2,-11.6
2,CCOc1ccc(N2C(=O)c3cccnc3C2Nc2ccc(F)cc2)cc1 (centres unmarked),-10.9
3,CCOc1ccc(C(=O)NCC(=O)NCC(c2ccc(OC)cc2)N2CCCC2)cc1 (centres unmarked),-4.71
4,O=C(NC(Cc1ccccc1)C(=O)O)/C(=C/c1ccco1)NC(=O)c1cccc(Br)c1 (centres unmarked),8.9
5,O=C(Nc1ccc(Cl)cc1)N(C1=NCCC1)c1ccc(OC(F)F)cc1,-8.02
6,COCCCn1c(SCC(=O)NC2CCS(=O)(=O)C2)nnc1-c1ccc(Cl)cc1 (centres unmarked),10.5
7,CC(=O)N/C(=C\c1ccccc1)C(=O)OCC(=O)c1ccc(F)cc1,-16.4
8,CCN(CC)S(=O)(=O)c1ccc(/C=C/C(=O)OCC(=O)NCc2cccs2)cc1,-39.3
9,Cc1ccc(S(=O)(=O)Nc2cc(=O)[nH]c3c2CCC3)cc1,-6.49
10,CC(C)c1ccc(/C=C2\SC(=O)N(CC(=O)NC3CCS(=O)(=O)C3)C2=O)cc1 (centres unmarked),14.7
11,COc1ccccc1C(C)NCC(=O)Nc1ccccc1C(F)(F)F.O=C(O)C(=O)O (centres unmarked),-14.1
12,CCCc1nn(C)c(C(=O)Nc2cccc3ccccc23)c1Cl,6.06
13,O=C(CSc1nc(=O)n2cc(Cl)ccc2n1)NCCc1ccccc1,-36.7
14,COc1ccccc1N1CCN(c2ccc3ccccc3n2)CC1,-36.5
15,CC1CCN(C(=S)NC2CC3CCC2C3)CC1 (centres unmarked),-8.35
16,COc1ccc(-c2nnc(SCc3ccc(C(=O)O)cc3)o2)cc1OC,13.7
17,O=C(OCc1csc(Nc2ccccc2)n1)c1ccc(Cl)cc1,7.76
18,C=CCNC(=O)c1nn2cccnc2c1Cl,12.7
